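The compound was tested at five concentrations on cells cultured in 96-well plates, with a 48-hour exposure period. GI50 is the concentration that inhibits growth by half. The concentration for full growth arrest is given as TGI.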

From PubChem BioAssay (NCI) come the findings set out here.

The experiment concerns NCI-H322M lung. Description: inhibition of tumour cell growth, NCI panel, 48 h.
For `Cc1ccc(S(=O)(=O)OC2=C/C(=N\c3onc(C)c3C)c3ccccc3C2=O)cc1`, the TGI is above 100 µM.

For the molecule `Cc1cn(C2CC(O)C(Cn3cc(Cn4ncc(=O)[nH]c4=O)nn3)O2)c(=O)[nH]c1=O` (stereo not given), the TGI is above 100 µM.

`COC(=O)C1C(O)CCC2CN3CCc4c([nH]c5cccc(OC)c45)C3CC21` (stereo not given) gave a TGI above 100 µM.

`COC(=O)C(C(=O)C(=O)NC1=C(Cl)C(=O)c2ccccc2C1=O)c1csc(-n2nc(-c3ccccc3)cc2-c2ccccc2)n1` (stereo not given) returned a TGI above 100 µM.

Consider `Cn1cccc1-c1cc(-c2cccs2)[nH]c(=O)c1C#N`, for which the GI50 is above 100 µM and the TGI is above 100 µM.

For the molecule `CCOC(=O)/C(=C\NCC(OCC)OCC)c1nc2ccccc2[nH]1`, the TGI is above 100 µM.

Take `COc1ccc(N=C2C(=O)C3=C(OC(C)(C)CC3)c3ccccc32)cc1`: the TGI was found to be 6.48 µM.

`C/C=C/C=N/N(C(=O)c1cc([N+](=O)[O-])cc([N+](=O)[O-])c1)C1=NC(c2ccccc2)C(c2ccccc2)=NN1` (stereo not given) showed a TGI above 100 µM.

With `Cc1n[nH]c(=S)n1/N=C/c1ccc(F)c(Oc2ccccc2)c1`, the GI50 is 54.7 µM and the TGI was above 100 µM.

The molecule `C=C[C@]1(C)CCC2=C(CCC3C2(C)CCC[C@]3(C)CO)C1` (stereo not given in full) returned a TGI above 100 µM.

For `O=C(Nc1n[nH]c2nc(-c3ccco3)ccc12)C1CC1`, the GI50 is above 25 µM and the TGI is above 25 µM.

`CC1=NN(C(=O)CC(=O)Nc2ccccc2Cl)C(=O)C1N=Nc1ccc(C(=O)O)cc1` (stereo not given): the TGI was above 100 µM.

Molecule `CN(C)C(=O)/N=c1\ss/c(=N\C(=S)N(C)C)n1-c1ccccc1` gave a TGI above 100 µM.

As to `C=C1C(=O)O[C@H]2[C@H]1CC/C(Cn1cc(Cn3ccc4ccccc43)nn1)=C\CC[C@@]1(C)O[C@@H]21`, the GI50 was 13.3 µM and the TGI was found to be 26.1 µM.

On to `c1ccc(C2C3=C(CCCC3)Nc3nc4cc5ccccc5cc4n32)cc1` (stereo not given), for which the TGI is above 100 µM.

Turning to `O=C(O)CC(Nc1ccccc1)C(=O)O` (stereo not given), the TGI was above 100 µM.

For the molecule `COC(=O)/C(C#N)=C1\CCC(O)N1C` (stereo not given), the TGI is above 100 µM.

For the molecule `COC(=O)C[C@@H]1C(C)(C)[C@@H]2O[C@@]34C[C@@H]2C(=O)[C@]1(C)[C@H]3CC[C@@]1(C)[C@H](c2ccoc2)OC(=O)C[C@]14O`, the TGI was above 100 µM.

`CCc1ccccc1NC(=O)CCc1n[nH]c(=S)o1` showed a TGI above 100 µM.

As to `CCC(C)OC(=O)C1C2CCC(O2)C1C(=O)O` (stereo not given), the TGI is above 100 µM.

As to `C=CCNC(=S)N1c2ccccc2NC(=O)CC1C` (stereo not given), the TGI is above 100 µM.

Consider `COc1ccc(CNC2=C(NC(C)=O)C(=O)c3ccccc3C2=O)cc1`, for which the TGI was above 50 µM.

With `O=C(O)c1ccc(O)c(N=Nc2cc(S(=O)(=O)O)c3ccccc3c2O)c1`, the TGI is above 100 µM.

`C[C@@H](CO)OCOCc1ccccc1` displayed a TGI above 100 µM.

Regarding `COC(=O)CCC(NC(=O)C(C)NC(=O)COC1C(O)C(OC(=O)CCNc2c3ccccc3nc3cccc([N+](=O)[O-])c23)OC(OCc2ccccc2)C1NC(C)=O)C(N)=O` (stereo not given), the TGI was above 10 µM.

In turn, `Cc1ccc(OCC2OC(C#N)C(Oc3ccc(C)cc3)C2Oc2ccc(C)cc2)cc1` (stereo not given) gave a TGI above 100 µM.

Take `COc1ccc(-c2cc(=O)c3c(OC)c(OC)c(OC)c(OC)c3o2)cc1OC`: the TGI is above 100 µM.

Consider `C#CCN=C(N/N=C/c1ccc([N+](=O)[O-])o1)NS(=O)(=O)c1cc(C)c(Cl)cc1SCC(N)=O`, for which the GI50 is 26.9 µM and the TGI was 64.8 µM.

On to `C[C@]12CC[C@@H]3c4ccccc4CC[C@H]3[C@@H]1CC[C@@H]2O`, for which the TGI was above 100 µM.

`NC(=O)N/N=C(\C(=O)C(=O)Nc1ccc(Cl)c(C(F)(F)F)c1)c1nc2ccc(C(=O)c3ccccc3)cc2[nH]c1=O` had a TGI above 100 µM.

For the molecule `O=CN1CCN(C(=O)c2cc(Cl)cc(Cl)c2)C1=S`, the TGI stood at 35.3 µM.

In the case of `O=C(Nc1nccs1)c1cc2c(cc1Cl)Sc1nccn1S2(=O)=O`, the GI50 is 17.5 µM and the TGI was found to be 33.7 µM.

In the case of `CCOC(=O)c1c(C)nc2ccc(Cl)cc2c1-c1ccccc1`, the GI50 is 25.2 µM and the TGI was found to be 91.6 µM.

For the molecule `C/C(CC(=O)NNc1ccc([N+](=O)[O-])cc1)=N\Nc1ccc([N+](=O)[O-])cc1`, the GI50 is 23.3 µM and the TGI is above 100 µM.

`CCOC(=O)C1CCn2c(nc3c2c(=O)n(C)c(=O)n3C)S1` (stereo not given): the TGI was above 100 µM.

In turn, `CC1(C)OC(C(N)=O)=C(C(N)=O)O1` displayed a TGI above 100 µM.

Turning to `ClCc1ccc(-c2ccc(Cn3cnc4c(Cl)nc(Cl)nc43)cc2)cc1`, the GI50 was 6.2 µM and the TGI amounted to 18.7 µM.

Molecule `COC(=O)[C@@H]1C[C@H]([Se]c2ccccc2)CN1S(=O)(=O)c1ccc(C)cc1` returned a TGI above 100 µM.

In the case of `O=C1/C(=C\C(Cl)=C/c2ccc([N+](=O)[O-])cc2)SC(=S)N1CCc1ccc(O)cc1`, the GI50 is 1.43 µM and the TGI is 3.03 µM.

In turn, `Cn1c(=O)c2c(no[n+]2[O-])n(C)c1=O` displayed a TGI above 100 µM.

Turning to `CC(=O)OCc1cc(OC(C)=O)cnc1COC(C)=O`, the TGI is above 100 µM.

As to `O=C1c2cccnc2S(=O)N1Cc1ccccc1` (stereo not given), the TGI was above 100 µM.

`Nc1ncnc(NC2C=C(CO)C(O)C2O)c1[N+](=O)[O-]` (stereo not given): the TGI was above 100 µM.

`CN(CCCNC(=O)c1cn(C)c2c1ccc1cc(Cl)c(Cl)cc12)CCCNC(=O)c1cn(C)c2c1ccc1cc(Cl)c(Cl)cc12` had a TGI of 28 µM.

Molecule `NC1CC(=O)c2c(Cl)sc(Cl)c21` (stereo not given) returned a TGI of 23.8 µM.

With `CC(=O)OCC1OC(n2c(C)c(N=Nc3ccccc3)c(C)c(C#N)c2=S)C(OC(C)=O)C(OC(C)=O)C1OC(C)=O` (stereo not given), the TGI is above 100 µM.

The molecule `COC1C=CC(C(=O)[N+]2=Cc3[nH]c4ccccc4c3CC2)O1` (stereo not given) showed a TGI above 100 µM.

Molecule `Cc1oc2c(C)c(O)c3c(c2c1C1(C)OCCO1)C(=O)C=C(Cl)C3=O` had a TGI above 100 µM.

Molecule `COc1ccc(-c2c(C#N)c(-c3ccc(C)cc3)n(NS(=O)(=O)c3ccccc3)c(=O)c2C#N)cc1` returned a TGI above 100 µM.

In the case of `N/C(=N\N=C\c1cccs1)NO`, the TGI was above 100 µM.
